# Assay results as given in the supplement of paper PMC11417369.
# ± gives the standard deviation of the averaged measurements. The list shows a part of the results.
# Tested on: PfAP2-I AP2 domain 3 (GST-tagged)
# Assay: gcPBM binding intensity (ln(normalized median fluorescence intensity)); higher = stronger DNA binding
# In short: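 Binding intensity values are the highest Masliner-normalised natural-log median intensity among replicate spots of either probe orientation. The binding step lasted 1 h in 1× PBS with 1% milk, 0.2 mg/ml BSA, 0.5% salmon testes DNA and 0.03% Triton X-100, using GST-tagged P. falciparum DNA-binding domains expressed in E. coli on an Agilent 4 × 180k array of primer-extended double-stranded 36-bp intergenic genomic probes plus negative controls. Alexa488 anti-GST antibody and a 488 nm scan detected bound protein.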
row,Sequence,gcPBM binding intensity (ln)
1,TTACGCATACTAATTACACACAAATAGATGAATATA [CACACA_site1338],8.06 ± 0.3
2,ATAAAAAAATAAATTAGTACATATATATATATATAT [XGTACX_site6971],9.41 ± 0.26
3,TTAAATTAAAACAAATGTACAAAGTGCATATTTTTT [XGTACX_site8143],9.45 ± 0.15
4,ATTTTTTTTTCTTTCGCACACGTGAAAGAATTTCTA [CACACA_site2052],8.46 ± 0.53
5,ATAATTTAATACTAGTGTACAGAAAAAAAAAAAAAA [XGTACX_site6756],8.19 ± 0.58
6,ATATTATATTATATAACACACATTTTTCATAACACT [CACACA_site407],7.99 ± 0.65
7,TGTTTAAATTTTTTGTTTTTTTTTTTATAAAGCAAA [TGCATGCA_negctrl_site313],7.48 ± 0.21
8,ACATATATATATAAATATATATATATATAAATATAT [CACACA_negctrl_site895],7.92 ± 0.36
9,GTTGAACATAGATGCACACACATAAAATAAAAAAAA [CACACA_site5353],8.76 ± 0.057
10,TTGTTGTTATTTAAAACACACATCAATCATCTTAAC [CACACA_site1142],7.55 ± 0.5
11,TGAAGGTCAGTTCACAGTACCCAGTAACTCTACGGA [XGTACX_site2554],7.24 ± 0.54
12,TATATTTTTTTAAAAAGTACTTTGTATATATATATA [XGTACX_site1300],9.32 ± 0.63
13,AAAAAACACAGACACACACACATATACATACATACA [CACACA_site2666],8.55 ± 0.78
14,ATATTTCGTCTAAAAAGTACACAACAATAAAAAGTA [XGTACX_site6668],8.04 ± 0.5
15,TTAGGTTTATACACTACACACATTATTCATAAAAAA [CACACA_site871],7.96 ± 0.38
16,TTTTTTAAATAATATTGTACAAAAAATGTATAAATA [XGTACX_site3010],7.92 ± 0.22
17,AAGTGTATACAGAAGAGTACAAACAATTTTTTTCTT [XGTACX_site7387],7.71 ± 0.64
18,TATATATATTTAAGGTGTACATAAATAACAAAATAT [XGTACX_site2641],8.21 ± 0.61
19,TTTTCATTTATGTATATATTTATTTTGATTTAATGT [GTGCAC_negctrl_site607],7.47 ± 0.56
20,AAAATTATAAATCTTGCACACAAAAAAAATAATAAA [CACACA_site8771],8.43 ± 0.071
21,TAAATATATTCAATCACACACATTCGTTTTTTTTTT [CACACA_site234],7.53 ± 0.69
22,AATTATTTTATGTGAGGTACACCACACATGAAGGGG [XGTACX_site8450],8.3 ± 0.31

row,Sequence,gcPBM binding intensity (ln)
1,TATTGTTATGTCGTTATTAACTTTCTTTAATTAATT [CACACA_negctrl_site174],7.81 ± 0.54
2,AAATATTCATAGTATACACACATTTATATATAATCA [CACACA_site771],8.01 ± 0.33
3,TGAAAGTTCAATAATTGTACATGTGGAAATTCATAC [XGTACX_site1378],8.24 ± 0.55
4,ACCCATTTAACAAAATGTACATTATTATAATTACTT [XGTACX_site7105],8.02 ± 0.58
5,AAATTTTAAATAGTATGTACGTATGAAATATATATG [XGTACX_site7511],8.17 ± 0.47
6,ATTTAAATACAAAATTGTACTTTTCTATATTTAACA [XGTACX_site6146],7.79 ± 0.41
7,TTTGGAAAAAAATTATTTAAACGATATGAATTGATG [XGTACX_negctrl_site506],7.65 ± 0.65
8,AAAATTTTACAGAAGGTGCGTATATTTTCCTGCTTA [GTGCAC_site9643],9.69 ± 0.085
9,TACAATATTTTGAGACGTACATATATACATTTACAT [XGTACX_site5880],7.71 ± 0.46
10,CTTACCAAAAGACACACACACACAAGATATATAAAT [CACACA_site6964],7.82 ± 0.52
11,AAATTAAAATAAAAATGTACATATAAAGACACAACT [XGTACX_site3132],8.57 ± 0.37
12,TATATATATATACCAACACACATACAGATATATATA [CACACA_site5060],9.16 ± 0.42
13,TTTATATACAAAAATGCACACGAAAAGTAATATATA [CACACA_site9387],8.53 ± 0.63
14,TGTAAGTCGTTATAAGCACACACATAAATAAAAATA [CACACA_site8448],8.31 ± 0.24
15,TGAACTTACTTGGACATACACACATATATATATATA [CACACA_site2977],9.6 ± 0.47
16,AAGCCCATTATTAAATGTACAAAATTTTATAAACTA [XGTACX_site7800],7.68 ± 0.64
17,TATAGGTATTTATATACACACATATTCTTTTTACAC [CACACA_site6686],7.88 ± 0.37
18,GTATATATGTATATATGTACATATATATAATATATT [XGTACX_site56],8.34 ± 0.91
19,TAAAACATATATACAAGTACACAAAGGATATATATA [XGTACX_site3710],7.93 ± 0.71
20,CAGTGCCAAATTAGCACACACATATATACATGAATT [CACACA_site2814],9.48 ± 0.22
21,ATGTAGATAAAACGTGTGCACATGTTTTTTGTTATT,9.52 ± 0.33
22,CACAGTGATATAAAAACACACATGAATTATAATTTC [CACACA_site1667],7.46 ± 0.64

row,Sequence,gcPBM binding intensity (ln)
1,TTTTGTTATGGTTTGATGCACTTATATATAAATATT [GTGCAC_site9705],9.53 ± 0.43
2,ATATATATATATATATGTACTTATTACCAATGTTAG [XGTACX_site1896],9.34 ± 0.29
3,TAATTATGTATGAACTGTACAGGTTATTTTATTTTA [XGTACX_site5204],7.76 ± 0.26
4,TAAAATTTAAATTATACACACTTAAGTAACATCATC [CACACA_site4450],7.96 ± 0.51
5,AAAAAATACCTCTATAGTACATATATATAATATTTA [XGTACX_site7222],7.55 ± 0.52
6,AAAAAAAATTTATTTGCATGCAAAAAAAAAAAAAAA [TGCATGCA_site67],8.23 ± 0.89
7,TCTTAAATATATAAATTGAAAAATATAAAAGTAATA [CACACA_negctrl_site1558],7.5 ± 0.46
8,AAAACAATATACTGTAGTACTGATGATATATATATA [XGTACX_site7798],8.98 ± 0.092
9,ACAATATAGATTAAAAGTACAAATAGTAAATTATAT [XGTACX_site3165],7.85 ± 0.72
10,ATAAAAAAAAATAGCACACATAAATATATTATATAT [CACACA_site767],7.98 ± 0.35
11,CTACTTATAAATAGAACACACATAAGTGTATTTGTA [CACACA_site3759],7.66 ± 0.33
12,AATCATCTCATAAAAATTAATTAGTGTATGTCTTTT [TGCATGCA_negctrl_site416],7.39 ± 0.59
13,TATATACATACATATACACACATATATATATATATA [CACACA_site401],9.21 ± 0.51
14,GTATAAAATATTGATTGTACTTTATTCATTTTTTTT [XGTACX_site2520],7.55 ± 0.43
15,TCATATTCCAAGTGTACACATAAATCCCTAATAACA [CACACA_site5167],8.15 ± 0.51
16,TCATTGTTTAATATGTGTCCTCAAAATTTGTTATAT [XGTACX_site677],7.76 ± 0.52
17,TCTTGTTAATATATTAAATATATCTATAAATATATA [XGTACX_negctrl_site486],7.7 ± 0.41
18,ACAAATGGAACTCCTACAAAAAATTTCCATAATATT [XGTACX_negctrl_site132],7.42 ± 0.66
19,TAAACCTATTATACGGGTACTTATTTGATTCTTATA [XGTACX_site5292],7.57 ± 0.56
20,AAAAATAAAACAATTACACACATAACTTTATTTTTA [CACACA_site6563],7.82 ± 0.52
21,AAAAGCTTAAAAAATTGTACATAAATGAATAAATAT [XGTACX_site5201],7.54 ± 0.53
22,GAACTCATTTAATATTGTACATTCTGATATTTTTTA [XGTACX_site5995],7.93 ± 0.49

row,Sequence,gcPBM binding intensity (ln)
1,ACCACCATATAACATACATGCATCTTTTTTCCCTTC [TGCATGCA_site583],8.71 ± 0.5
2,AATATATGATAATTTTTTTTTTTTTTTTTTAAATAT [CACACA_negctrl_site452],7.21 ± 0.35
3,AACAATTGTTAAAGGTGTACCATATGTATATAAGAA [XGTACX_site5723],8.38 ± 0.56
4,AGACGTAATAATTGTTGTACATAAAAAAATAAGAAA [XGTACX_site7594],8.02 ± 0.46
5,AAAAAATGTTAAAAAAGTACTTTCTTTATTTAATAA [XGTACX_site2908],7.51 ± 0.3
6,TGTGTTAGCAAAAAAGTGCACAGGGAAAAAAAAATA [GTGCAC_site9397],10.5 ± 0.17
7,ATGATATTATAAAAAAGTACATATGTATATAATTAT [XGTACX_site7652],8.03 ± 0.44
8,AATGCACAGCTCTTAGGCAAAAGTGGGTATTTACAC [GTGCAC_negctrl_site579],8.76 ± 0.53
9,TGTATAAAAAACTAATGTACAAATGACAAGATATCT [XGTACX_site4600],7.61 ± 0.61
10,CATTTAGTTCATACTATGCACACTACGTATATTTTT [CACACA_site2694],8.82 ± 0.58
11,ATTTAATACAAATACACACACAAATATGTACCTATA [CACACA_site7718],7.8 ± 0.54
12,ACAATTCATTAGAATTGTACAAAAGGATGAAGCGAA [XGTACX_site5242],8.14 ± 0.64
13,ATTTTTTTTTTTTAATTTGATATTTGCGTTTATATA [CACACA_negctrl_site1305],7.46 ± 0.65
14,AATTTTTTTTTCTTTTGTACGTAAATATGTGTAGGC [XGTACX_site215],8.33 ± 0.26
15,CTAATAAAAAAAAAAAGTACATATGACAATATAAAG [XGTACX_site1598],8.17 ± 0.44
16,TTAACACATTTTATGTGTACTCATATGATTTAAAAT [XGTACX_site7516],7.78 ± 0.18
17,TTAAAATGAAGAAGTGCACACATATATATATTTATA [CACACA_site8063],9.67 ± 0.18
18,TATAAACAGACGAAAACACACATATGTAGATATATA [CACACA_site6371],7.9 ± 0.69
19,TATATATTAGTGTTGACACACACAAAAAAAAAAAAA [CACACA_site8392],8.12 ± 0.71
20,ATTTTTTTTTTTTTTTTTTTTTTTTATGAATGTTAT [CACACA_negctrl_site1319],7.62 ± 0.5
21,ATCAGGCAAAATTTTTGTACATATATATTTTATTTT [XGTACX_site1245],8.06 ± 0.63
22,ATTTTTTTTTTTTTTTTTTTTTTTTTTTTTTTTTTT [CACACA_negctrl_site1364],10.4 ± 0.2
